From patent publication US8475804B2 (priority 2009, dated 2013) come the findings set out here.

Assay [1] concerns Ebola virus. In words: microbe, parasite or virus in culture. Type of assay: cell-based, Ebolavirus (EBOV). Particulars: Zaire ebolavirus; for IC50: HepG2, read-out: IC50 (μM) HepG2.
The test system of assay [2] is Ebola virus. The assay can be described thus: microbe, parasite or virus in culture. Type of assay: cell-based, Ebolavirus (EBOV).
[3] abbreviates: Zaire ebolavirus, Vero, read-out: IC50 (μM) Vero.
[4] abbreviates: Zaire ebolavirus, Vero, read-out: Max Effect.

Structures can show the parent of a compound that is named as a salt. Where two headings read alike, the source gives them in different places.

For orientation: IC50 means the concentration needed to halve the response being measured. For `OCCN1CCN(CCCN2c3ccccc3Sc3ccc(C(F)(F)F)cc32)CC1` [Fluphenazine Hydrochloride], the IC50 amounted to 3 µM in assay [1]; 4.2 µM in assay [2] (Zaire ebolavirus, Vero); 5.5 µM in assay [2] (setting [3]).

As for `CN1CCC[C@@H]1CCO[C@](C)(c1ccccc1)c1ccc(Cl)cc1` [Clemastine], in assay [2], half-maximal inhibition (IC50) was put at 2.9 µM and the “Max Effect” value worked out at 0.525.

On to `CC/C(=C(\c1ccccc1)c1ccc(OCCN(C)C)cc1)c1ccccc1` [Tamoxifen Citrate], for which inhibition in assay [2] was half-maximal at 1.7 µM (IC50).

Turning to `CN1CCC[C@@H]1CCO[C@](C)(c1ccccc1)c1ccc(Cl)cc1` [Clemastine Fumarate], the IC50 in assay [1] is 0.65 µM; in assay [2] (Zaire ebolavirus, Vero), 4 µM; in assay [2] (setting [3]), 5.4 µM. The Emax in assay [1] (HepG2, read-out: Max Effect HepG2) was 93.3%; in assay [2] (Zaire ebolavirus, Vero, read-out: Max Effect Vero), 95.8%. Moreover, in assay [2], the “Max Effect” value turned out to be 0.850.

With `Clc1ccc(CO/N=C(\Cn2ccnc2)c2ccc(Cl)cc2Cl)c(Cl)c1` [Oxiconazole Nitrate], the Emax in assay [2] (setting [4]) amounted to 41.1%.

With `O=C1CCc2ccc(OCCCCN3CCN(c4cccc(Cl)c4Cl)CC3)cc2N1` [Aripiprazole], the IC50 was determined as 3.8 µM in assay [1]; 7.5 µM in assay [2] (Zaire ebolavirus, Vero); 20 µM in assay [2] (setting [3]).

Take `CCN(CC)CCOc1ccc(/C(=C(\Cl)c2ccccc2)c2ccccc2)cc1` [Clomiphene Citrate]: the IC50 in assay [1] came out at 0.76 µM; in assay [2] (setting [3]), 2.4 µM.

On to `CCN(CC)CCOC(=O)C1(C2CCCCC2)CCCCC1` [Dicyclomine Hydrochloride], for which the IC50 in assay [2] (Zaire ebolavirus, Vero) came out at 5.7 µM. The Emax in assay [2] (setting [4]) amounted to 59.6%.

Consider `Clc1ccc(CSC(Cn2ccnc2)c2ccc(Cl)cc2Cl)cc1` (stereo not drawn) [Sulconazole Nitrate], for which, in assay [2] (Zaire ebolavirus, Vero), the IC50 was found to be 4.1 µM. In addition, the Emax in assay [2] (setting [4]) worked out at 90.4%.

On to `CN(C)CCCN1c2ccccc2CCc2ccc(Cl)cc21` [Clomipramine Hydrochloride], for which the IC50 was 2.6 µM in assay [1]; 6.3 µM in assay [2] (Zaire ebolavirus, Vero); 11.3 µM in assay [2] (setting [3]).

On to `CN1CCN(CCCN2c3ccccc3Sc3ccc(Cl)cc32)CC1` [Prochlorperazine Edisylate], for which the IC50 in assay [1] amounted to 3.6 µM; in assay [2] (Zaire ebolavirus, Vero) it was 5.2 µM; in assay [2] (setting [3]) it was 5.9 µM.

As for `COc1ccc(CCN2CCC(Nc3nc4ccccc4n3Cc3ccc(F)cc3)CC2)cc1` [Astemizole], the IC50 was found to be 1.4 µM in assay [1]; 4.3 µM in assay [2] (Zaire ebolavirus, Vero); 6.2 µM in assay [2] (setting [3]).

As to `CN1[C@@H]2CC[C@H]1C[C@@H](OC(c1ccccc1)c1ccccc1)C2` [Benztropine Mesylate], the IC50 in assay [1] was 2.6 µM; in assay [2] (Zaire ebolavirus, Vero), 3.7 µM; in assay [2] (setting [3]), 8 µM.

For `CN(C)C(=O)C(CCN1CCC(O)(c2ccc(Cl)cc2)CC1)(c1ccccc1)c1ccccc1` [Loperamide], half-maximal inhibition in assay [2] (Zaire ebolavirus, Vero) (IC50) was put at 5.5 µM.

`Clc1ccc2c(c1)CCc1cccnc1C2=C1CCNCC1` [Desloratadine]: in assay [2] (setting [4]), the Emax was 43%.

As for `CNCCCC12CCC(c3ccccc31)c1ccccc12` [Maprotiline Hydrochloride], the IC50 turned out to be 2.9 µM in assay [1]; 7.6 µM in assay [2] (Zaire ebolavirus, Vero); 9.6 µM in assay [2] (setting [3]).
